The molecules below were run against PRMT5/MEP50 Complex (Homo sapiens (Human), UniProt O14744) (assay: PRMT5 inhibition based on TR-FRET assay). Conditions: 32 nM PRMT5:MEP50, 50 nM Histone-H4 peptide, 1 μM SAM.
Format: biochemical
Text: PRMT5 Inhibition Based on TR-FRET Assay:
Protein arginine methyltransferase 5 (PRMT5) is a type II arginine methyltransferase that catalyze mono- and symmetric demethylation on arginine residues of histone or non-histone proteins in presence of S-adenosylmethionine (AdoMet or SAM) a cofactor responsible for donating the methyl group. PRMT5 is reported to be overexpressed in several human cancers. To identify compounds that inhibit the PRMT5 and decrease its activity, a TR-FRET based assay has been established. Time-resolved fluorescence resonance energy transfer (TR-FRET) HTS assays are homogeneous proximity assays where the interaction of two dye-labeled binding partners is detected by the energy transfer between a donor and an acceptor dye and the subsequent light emission by the acceptor dye. PRMT5 catalyzes Histone H4 peptide which is biotin tagged to the Lysine amino acid at carboxyl end, in presence of S-adenosyl-1-methionine (SAM) to methylate the peptide. The antibody specific to mono methylated H4 peptide (H4R3) with Ig conjugate binds to the methylated peptide, indirectly binding to the Europium lanthanide. SureLight Allophycocyanin-Streptavidin binds to the biotin tag of the peptide, therefore accepting the energy transferred from the Europium lanthanide. This energy transfer between Europium to SureLight Allophycocyanin is a direct measure of the activity/inhibition of the PRMT5 enzyme.
Assay buffer: 20 mM BICINE (pH 7.6), 25 mM NaCl, 2 mM DTT, 0.01% Tween-20 and 0.01% BSA.
The compound dilutions were prepared as 7.5% DMSO stock solutions in assay buffer. To 2 μL (7.5×) of test compound, 5 μL of PRMT5 enzyme prepared in assay buffer (Final concentration of 32 nM in 15 μL reaction volume) was added and allowed for 30 minutes pre-incubation time in a white polystyrene 384-well plate at room temperature. […] The plates were then read on Victor-3 with Excitation at 340 nm and Emissions collected at 615 and 665 nm in TR-FRET protocol. […]

Chain of UniProt O14744 (O14744 whole entry): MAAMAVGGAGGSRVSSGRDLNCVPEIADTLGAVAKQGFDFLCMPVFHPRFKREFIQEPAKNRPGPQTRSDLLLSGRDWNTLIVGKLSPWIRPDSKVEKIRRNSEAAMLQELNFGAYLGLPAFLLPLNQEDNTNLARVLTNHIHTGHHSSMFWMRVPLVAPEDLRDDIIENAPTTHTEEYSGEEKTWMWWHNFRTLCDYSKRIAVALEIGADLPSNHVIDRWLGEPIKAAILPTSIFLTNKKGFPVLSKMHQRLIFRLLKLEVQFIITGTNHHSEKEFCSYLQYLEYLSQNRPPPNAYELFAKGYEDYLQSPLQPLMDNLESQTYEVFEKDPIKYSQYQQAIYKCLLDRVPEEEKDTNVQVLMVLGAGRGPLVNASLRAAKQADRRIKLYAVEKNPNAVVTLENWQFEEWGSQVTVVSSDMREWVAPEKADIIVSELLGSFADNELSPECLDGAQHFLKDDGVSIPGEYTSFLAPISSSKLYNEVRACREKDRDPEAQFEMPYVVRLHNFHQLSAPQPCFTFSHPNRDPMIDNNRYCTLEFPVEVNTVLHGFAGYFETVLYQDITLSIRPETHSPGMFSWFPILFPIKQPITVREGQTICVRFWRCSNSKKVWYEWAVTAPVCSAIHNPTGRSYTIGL
Chain of UniProt O14744 (Q9BQA1 whole entry partner): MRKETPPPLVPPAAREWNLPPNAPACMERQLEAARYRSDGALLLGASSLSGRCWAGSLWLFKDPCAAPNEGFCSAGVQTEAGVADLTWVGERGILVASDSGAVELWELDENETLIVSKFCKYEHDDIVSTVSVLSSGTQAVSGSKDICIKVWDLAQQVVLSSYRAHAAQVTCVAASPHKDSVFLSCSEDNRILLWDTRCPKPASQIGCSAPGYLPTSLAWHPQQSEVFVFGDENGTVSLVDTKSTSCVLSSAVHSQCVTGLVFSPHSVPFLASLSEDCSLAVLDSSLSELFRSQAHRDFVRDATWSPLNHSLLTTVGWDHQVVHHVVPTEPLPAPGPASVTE

| SMILES | IC50 |
| --- | --- |
| CC1(C)CN(Cc2ccc(C#N)nc2)C(=O)N1CC(O)CN1CCc2ccccc2C1 (stereo not drawn) [Example 12, 5-((3-(3-(3,4-dihydroisoquinolin-2(1H)-yl)-2-hydroxypropyl)-4,4-dimethyl-2-oxoimidazolidin-1-yl)methyl)picolinonitrile] | 0.24 µM |
| Cc1ccc(CN2CC3(CC3)N(CC(O)CN3CCc4ccccc4C3)C2=O)cn1 (stereo not drawn) [Example 6, 4-(3-(3,4-dihydroisoquinolin-2(1H)-yl)-2-hydroxypropyl)-6-((6-methylpyridin-3-yl)methyl)-4,6-diazaspiro[2.4]heptan-5-one] | 0.12 µM |
| Cc1ccc(CN2C(=O)N(CC(O)CN3CCc4ccccc4C3)CC2(C)C)cc1 (stereo not drawn) [Example 10, 1-(3-(3,4-dihydroisoquinolin-2(1H)-yl)-2-hydroxypropyl)-4,4-dimethyl-3-(4-methylbenzyl)imidazolidin-2-one] | 0.23 µM |

From patent US11365205B2 (Aurigene Discovery Technologies Limited, priority 2018, dated 2022)
